Measurements taken from PubChem BioAssay AID1461 (National Center for Advancing Translational Sciences (NCATS), 2008).
In all, about 220,000 compounds went through this assay and about 2,300 (1%) were called active. This list was built around the results that the source calls inconclusive (neither active nor inactive); the mix of calls is not that of the screen. Calls come from the whole dose curve; as a rule, active = well fitted inhibition curve with a large enough effect; inconclusive = small, poorly fitted or top-dose-only effect, or effect the other way; inactive = no such curve, though single readings can be large or run the other way. No potency is given beside an inconclusive call; the fits are too rough.

Target: Neuropeptide S receptor (Homo sapiens) (UniProt Q6W5P4)
UniProt Q6W5P4, sequence (Q6W5P4 whole entry, looked up): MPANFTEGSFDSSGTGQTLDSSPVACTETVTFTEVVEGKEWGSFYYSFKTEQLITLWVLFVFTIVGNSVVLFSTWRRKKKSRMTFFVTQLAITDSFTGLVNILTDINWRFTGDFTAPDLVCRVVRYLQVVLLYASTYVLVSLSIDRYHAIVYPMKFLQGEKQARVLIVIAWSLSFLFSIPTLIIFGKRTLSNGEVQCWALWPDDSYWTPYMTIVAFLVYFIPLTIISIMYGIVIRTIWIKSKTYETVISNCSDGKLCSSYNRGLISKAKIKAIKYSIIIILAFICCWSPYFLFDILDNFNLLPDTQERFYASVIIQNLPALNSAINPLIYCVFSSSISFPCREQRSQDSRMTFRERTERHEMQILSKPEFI
Experiment: qHTS Assay for Antagonists of the Neuropeptide S Receptor: cAMP Signal Transduction; note: nearly all actives have a fitted effect of over 50% in size
Settings: CHO-NPSR cells, cAMP TR-FRET, antagonist mode; series mostly up to 38.3 µM
Potency is the fitted concentration of half-maximal effect; tags give direction and shape of the fitted curve.

Row | Structure (SMILES) | Potency
1 | C=CCn1c(SCc2cc([N+](=O)[O-])cc3c2OCOC3)nc2cc(C(=O)O)ccc2c1=O | inconclusive [activator, partial curve]
2 | Cc1sc2ncnc(N(C)CCc3ccccn3)c2c1C | inactive
3 | CCN(CC)S(=O)(=O)c1ccc(S(=O)(=O)N(Cc2ccccn2)Cc2ccco2)cc1 | inactive
4 | O=C(c1n[nH]c2ccccc12)N1CCN(S(=O)(=O)c2ccc3ccccc3c2)CC1 | inconclusive [inhibitor, full curve, poor fit]
5 | COc1ccc2oc(/C=C/N(C)C)c(C(=O)c3ccc(Cl)cc3)c2c1 | inconclusive [inhibitor, single point]
6 | O=C(CSc1c[nH]c2ccccc12)NCC1CCCO1 (configuration not stated) | inconclusive [activator, single point]
7 | CCc1ccc2c(c1)C(c1ccc(N3CCOCC3)cc1)=NNC(c1ccncc1)=N2 | inactive
8 | Cc1sc2ncnc(NCC(c3ccco3)N3CCCC3)c2c1C (configuration not stated) | inconclusive [inhibitor, single point]
9 | CCOC(=O)c1c(NS(=O)(=O)c2cccc(OC)c2)sc2c1CCC2 | inconclusive [inhibitor, single point]
10 | O=C1C(Cl)=C(Nc2ccc(O)cc2)C(=O)c2ccccc21 | inconclusive [activator, partial curve]
11 | CCn1nc(C)c(NC(=O)/C=C/c2ccc(OC)c(COc3ccc(Br)cc3)c2)c1C | inconclusive [inhibitor, single point]
12 | Cn1c(=O)c(/C=C/c2ccc(F)cc2)nc2ccccc21 | inconclusive [activator, single point]
13 | O=C(OC(C(=O)Nc1cccc(C(F)(F)F)c1)c1ccccc1)C1CCCCC1 (configuration not stated) | inactive
14 | Cc1ccc(-n2c(N)c(C(N)=O)sc2=S)cc1 | inactive
15 | O=C(Nc1ccc(Cl)cc1)N(Cc1cccs1)Cc1cccs1 | inconclusive [inhibitor, single point]
16 | C#CC(=O)N(c1ccc(OC)cc1OC)C(C(=O)NC1CCCC1)c1cccs1 (configuration not stated) | inconclusive [activator, single point]
17 | COc1ccc(CCNC(=O)CCSc2nc(-c3ccco3)cc(C(F)(F)F)n2)cc1 | inconclusive [inhibitor, single point]
18 | CCN(CCO)C1CC(=O)N(c2ccccc2C)C1=O (configuration not stated) | inactive
19 | CCOc1cc(C(=O)NC(=S)Nc2ccc(Cl)c(C(=O)O)c2)cc(OCC)c1OCC | inactive
20 | Cc1c(C(=O)NCc2cccnc2)oc2ccc(S(=O)(=O)N3CCCC(C)C3)cc12 (configuration not stated) | inconclusive [inhibitor, single point]
21 | CC(C)(C)OC(=O)NCCCC[C@H](NC(=O)c1[nH]cnc1C(=O)Nc1ccc(Cl)cc1)C(=O)OC(C)(C)C | inconclusive [inhibitor, single point]

Row | Structure (SMILES) | Potency
22 | COc1ccc(OC)c2c1sc(=NC(=O)c1cccc(N3C(=O)CCC3=O)c1)n2C | inconclusive [activator, single point]
23 | CCOC(=O)C1CCCN(C(=O)c2cc3c(C)nc4ccccc4c3o2)C1 (configuration not stated) | inconclusive [inhibitor, single point]
24 | Oc1c(CN2CCOCC2)cc(COCc2ccccc2)c2cccnc12 | inactive
25 | COC(=O)NC(=S)Nc1ccc(Oc2ccc(Cl)cc2)c(Cl)c1 | inconclusive [inhibitor, partial curve]
26 | Cc1cc(C)c2nc(-c3ccccn3)cc(C(=O)Nc3ccc(S(=O)(=O)Nc4cc(C)on4)cc3)c2c1 | active: 10 µM
27 | CCOC(=O)CSc1nc(C)cc(=O)[nH]1 | inactive
28 | Cc1ccc(SCc2ccc(C(=O)Nc3ccccc3Br)cc2)cc1 | inconclusive [inhibitor, single point]
29 | CCN1CCN(Cc2ccc(NC(=O)c3ccc(C)c(NC(=O)c4c[nH]c5cc(C(F)(F)F)ccc5c4=O)c3)cc2C(F)(F)F)CC1 | inconclusive [inhibitor, single point]
30 | CCOc1cc(-c2cc(-c3ccc(C)cc3)nc(N)c2C#N)ccc1O | inconclusive [inhibitor, partial curve]
31 | COc1cc(CNCCc2c[nH]c3ccccc23)ccc1OCc1ccccc1F | inconclusive [inhibitor, single point]
32 | COc1ccc(-c2nn3c(-c4ccccc4)nnc3s2)cc1OC | inconclusive [inhibitor, single point]
33 | CCn1c(=O)cc(SCC(=O)N2CCN(C(=O)c3ccco3)CC2)c2ccccc21 | inconclusive [inhibitor, partial curve]
34 | CC(C)(C)NC(=O)C(c1ccncc1)N(C(=O)c1csnn1)c1cccc2ccccc12 (configuration not stated) | inactive
35 | Cc1ccc2nc(-c3ccccn3)c(Nc3ccccc3C)n2c1 | active: 12.6 µM
36 | CC(=O)c1cccc(NC(=O)c2c(F)c(F)c(F)c(F)c2F)c1 | inconclusive [inhibitor, partial curve, poor fit]
37 | CC(C)C[C@H](NC(=O)c1[nH]cnc1C(=O)Nc1ccc(CNC(=O)OC(C)(C)C)cc1)C(=O)OCc1ccccc1 | inconclusive [inhibitor, single point]
38 | Cc1c(NC(=O)/C(C#N)=C/c2ccc(-c3cccc(Cl)c3)o2)c(=O)n(-c2ccccc2)n1C | inactive
39 | CCc1ccc(-c2nc(NC(=O)c3ccc(OCC(=O)Nc4ccc(F)cc4)c(OC)c3)sc2C)cc1 | active: 6.31 µM
40 | CCOC(=O)COn1c(=O)c(=O)n(O)c2ccccc21 | inconclusive [inhibitor, single point]
41 | CCOC(=O)N1CCC(n2c(SCC(=O)Nc3ccccc3OC)nc3ccccc3c2=O)CC1 | inconclusive [inhibitor, partial curve]
42 | FC(F)(F)c1cccc(NC(=S)NNC(=S)Nc2ccc(Cl)cc2)c1 | inconclusive [inhibitor, single point]
